Source: a compilation of properties of binary mixtures (doi:10.1007/s10953-023-01258-3)
The densities may have been worked out from excess volumes.

Test: xn = mol fraction of the nth substance listed
Details: 101 kPa

Cn1cc[n+](CCCN)c1.F[B-](F)(F)F + CS(C)=O
mass density [kg/m3]
Details	x1 = 0.1003	x1 = 0.2	x1 = 0.2997	x1 = 0.3997	x1 = 0.4998	x1 = 0.5999	x1 = 0.7001	x1 = 0.8109	x1 = 0.8998	x1 = 1
288.15 K	1180.1	1230.1	1264.3	1290	1308.6	1322.6	1334.5	1345.6	1353.5	1361.9
293.15 K	1175.6	1226	–	–	1304.3	–	1330.6	1341.7	–	1358
298.15 K	–	1221.4	1256	1281.4	1300.1	1314.3	1326.5	1337.8	1345.6	–
303.15 K	1166.7	1217.1	–	1277.3	1296	1310.2	–	–	–	1349.7
308.15 K	1162.1	1212.6	1247.2	1272.8	1291.7	1306.3	1318.8	–	1337.8	–
313.15 K	–	1208	1243	1268.5	1287.6	–	1314.8	–	1334	1341.6
318.15 K	1153.2	1203.7	1238.5	–	1283.4	1298.3	–	1322.4	1330.1	1337.6
323.15 K	1148.5	1199.1	1234.2	1259.7	–	1294.4	1307.1	1318.6	1326.2	–
328.15 K	–	–	1229.8	–	1275	1290.4	1303.2	1314.7	1322.4	1329.4
333.15 K	1140	1190.1	–	1250.9	1270.6	1286.3	1299.3	1310.7	1318.3	1325.4
338.15 K	1135.4	1186	1221	–	1266.7	1282.4	1295.5	–	1314.6	–
343.15 K	–	1181.8	1216.7	1242.4	1262.4	–	1291.6	1303.1	1310.7	1317.3
348.15 K	1126.5	1177.1	1212.3	1238.1	1258.3	1274.5	1287.7	1299.4	1306.9	1313.3
353.15 K	1122.2	1172.8	1207.9	–	1254.3	1270.6	1283.9	1295.8	1302.3	1309.2

CS(C)=O + Cn1cc[n+](CCCN)c1.F[B-](F)(F)F
x2 = 0
Details	mass density [kg/m3]
288.15 K	1105.7
293.15 K	1100.8
298.15 K	1095.7
303.15 K	1090.9
308.15 K	1085.8
313.15 K	1080.7
318.15 K	1075.5
323.15 K	1070.7
333.15 K	1060.6
338.15 K	1055.5
343.15 K	1050.6
348.15 K	1045.6
353.15 K	1040.5
